Measurements: article PMC6003176
No constants are given. Whether binding was seen depends on the method and setting. For some assays here: Binding seen in cells or lysates may run through a third protein. Some results given as binding are weak or reduced against the parent protein; the word gives no strength.

The chains behind the UniProt entries cited, without tags or fusion partners. Where a name states a change or a piece, a line headed by the entry shows the natural chain unless it says otherwise.
UniProt P05556: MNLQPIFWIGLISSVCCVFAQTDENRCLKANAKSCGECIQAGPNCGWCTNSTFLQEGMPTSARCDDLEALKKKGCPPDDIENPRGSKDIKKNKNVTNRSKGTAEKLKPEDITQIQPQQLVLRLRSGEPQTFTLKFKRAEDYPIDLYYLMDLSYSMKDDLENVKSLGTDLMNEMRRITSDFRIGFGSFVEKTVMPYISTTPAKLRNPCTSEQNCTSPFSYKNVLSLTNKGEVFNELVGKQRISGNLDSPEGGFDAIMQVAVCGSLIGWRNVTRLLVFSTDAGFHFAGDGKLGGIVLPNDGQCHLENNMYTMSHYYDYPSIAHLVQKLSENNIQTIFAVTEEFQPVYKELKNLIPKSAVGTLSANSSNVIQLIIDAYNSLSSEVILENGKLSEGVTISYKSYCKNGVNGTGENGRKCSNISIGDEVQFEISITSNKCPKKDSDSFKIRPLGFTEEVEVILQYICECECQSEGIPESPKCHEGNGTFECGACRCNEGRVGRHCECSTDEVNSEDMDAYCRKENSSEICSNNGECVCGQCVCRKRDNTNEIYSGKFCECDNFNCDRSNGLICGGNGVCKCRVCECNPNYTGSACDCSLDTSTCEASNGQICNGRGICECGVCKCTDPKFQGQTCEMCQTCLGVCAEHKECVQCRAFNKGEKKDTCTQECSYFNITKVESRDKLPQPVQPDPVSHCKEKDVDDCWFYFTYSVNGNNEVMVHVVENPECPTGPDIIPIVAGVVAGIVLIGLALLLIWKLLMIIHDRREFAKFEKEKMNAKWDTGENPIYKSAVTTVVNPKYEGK

Legend:
[1] = target: gamma-synuclein (SNCG), endogenous in HCT116 cells (human (endogenous in HCT116)) (UniProt O76070); assay: co-IP; cell membrane proteins / cell lysates of HCT116 cells immunoprecipitated with anti-SNCG or anti-β1 integrin antibody; Western blot; normal IgG as negative control
[2] = target: β1 integrin, endogenous in HCT116 cells (human (endogenous in HCT116)) (UniProt P05556); assay: as above
[3] = target: β1 integrin, endogenous in HCT116 cells (human (endogenous in HCT116)) (UniProt P05556); assay: far-Western, overlay or dot blot; HCT116 cell lysates separated by native PAGE (methods; the legend says SDS-PAGE), transferred to nitrocellulose, probed with 10 ng of purified SNCG overnight at room temperature, detected with HRP-labeled anti-SNCG mAb; cells with control siRNA or β1 siRNA, treated without or with 1 μmol/L rhSNCG; only the binder purified

Row | binding [1] | Substance | further results
1 | no binding | HER-2, endogenous in HCT116 cells (from UniProt P04626 23-1255) (receptor) | 
2 | binds | β1 integrin, endogenous in HCT116 cells (from UniProt P05556 21-798) (receptor) | 
3 |  | gamma-synuclein (SNCG), endogenous in HCT116 cells (from UniProt O76070 1-127) | binding [2]: binds
4 | no binding | EGFR, endogenous in HCT116 cells (from UniProt P00533 25-1210) (receptor) | 
5 |  | recombinant untagged SNCG, purified (from UniProt O76070 1-127) | binding [3]: binds
